Experimental data: publication PMC4336329 (PLoS ONE, 2015)
The whole screen tested about 310,000 compounds, of which about 2,200 (0.71%) showed an effect of 50% or more. The effect is printed as a negative number. This is one part of the list.

Molecular target: human ether-à-go-go-related gene (hERG) potassium channel (human, UniProt Q12809)
Experiment: primary screen, population patch clamp on CHO cells stably expressing hERG

human ether-à-go-go-related gene (hERG) potassium channel, sequence (Q12809 whole entry, looked up): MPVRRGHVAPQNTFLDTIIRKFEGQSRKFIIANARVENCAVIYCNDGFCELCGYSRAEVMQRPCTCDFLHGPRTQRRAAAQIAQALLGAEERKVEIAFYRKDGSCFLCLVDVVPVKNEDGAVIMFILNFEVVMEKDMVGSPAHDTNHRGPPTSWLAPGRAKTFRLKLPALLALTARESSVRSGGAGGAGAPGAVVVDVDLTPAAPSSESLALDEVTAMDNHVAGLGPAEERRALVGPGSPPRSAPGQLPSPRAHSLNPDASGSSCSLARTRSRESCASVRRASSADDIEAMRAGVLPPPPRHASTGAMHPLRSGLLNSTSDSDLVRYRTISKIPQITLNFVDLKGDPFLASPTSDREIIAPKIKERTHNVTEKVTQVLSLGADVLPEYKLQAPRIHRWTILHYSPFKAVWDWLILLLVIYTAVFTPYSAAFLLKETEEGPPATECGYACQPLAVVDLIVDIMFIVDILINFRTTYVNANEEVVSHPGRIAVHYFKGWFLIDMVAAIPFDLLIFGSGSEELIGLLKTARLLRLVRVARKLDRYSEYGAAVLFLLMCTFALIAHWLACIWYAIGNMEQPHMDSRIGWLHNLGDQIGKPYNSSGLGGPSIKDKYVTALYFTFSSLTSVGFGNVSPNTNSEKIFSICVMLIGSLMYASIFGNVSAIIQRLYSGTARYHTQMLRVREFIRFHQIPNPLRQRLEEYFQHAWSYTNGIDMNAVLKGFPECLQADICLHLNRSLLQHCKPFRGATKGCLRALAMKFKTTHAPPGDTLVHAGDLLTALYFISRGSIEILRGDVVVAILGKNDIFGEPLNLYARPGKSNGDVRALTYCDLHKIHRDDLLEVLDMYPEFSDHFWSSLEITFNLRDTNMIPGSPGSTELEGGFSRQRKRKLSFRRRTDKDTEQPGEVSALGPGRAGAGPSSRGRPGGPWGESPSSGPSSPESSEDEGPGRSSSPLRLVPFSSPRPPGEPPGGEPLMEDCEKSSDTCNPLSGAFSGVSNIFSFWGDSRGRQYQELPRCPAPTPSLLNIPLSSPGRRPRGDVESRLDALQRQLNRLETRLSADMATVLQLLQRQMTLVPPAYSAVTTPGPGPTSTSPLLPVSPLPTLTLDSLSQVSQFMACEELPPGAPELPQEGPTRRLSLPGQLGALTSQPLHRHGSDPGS

| Structure (SMILES) | hERG current change (%, negative = inhibition) at 1uM [%] |
| --- | --- |
| COc1ccccc1C1(CC(=O)N2CCCCC2)CCOC(C(C)C)C1 (stereo not drawn) | 6.44 |
| CCCCSc1nnc(C)c(=O)[nH]1 | 8.76 |
| CCN1C(=O)C(NC(C)=O)c2cc(Br)ccc21 (stereo not drawn) | -5.16 |
| COc1ccccc1C(=O)NCCC(=O)NC1=NCCS1 | 12 |
| CCc1ccc(-c2cc(C(F)(F)F)n3nc(C(=O)Nc4c(C)nn(Cc5ccc(F)cc5)c4C)cc3n2)s1 | 5.94 |
| CN1CCN(Cc2cc(Cl)c3cccnc3c2OC(=O)c2cccs2)CC1 | -17.3 |
| COc1ccc(NC(=O)NNC(=O)c2ccc3ccccc3c2)cc1OC | 10.5 |
| COc1ccc(NC(=O)c2ccc(NCCCN3CCOCC3)c([N+](=O)[O-])c2)cc1 | 4.25 |
| Cc1[nH]nc2c1C1(CCC(c3ccccc3)CC1)C(C#N)=C(N)O2 (stereo not drawn) | 13.7 |
| Cc1cc(Cl)c(S(=O)(=O)NCC2CCCO2)cc1OCC(=O)NC1CCCCC1 (stereo not drawn) | -10.8 |
| CCN(CC)C(=O)CC(c1ccc(F)cc1)c1ccc(OC)cc1 (stereo not drawn) | 4.96 |
| O=C(Nc1ccc(Cl)cn1)c1ccccc1F | 8.1 |
| C=CCNC(=O)c1ccc(-c2nc(-c3ccccc3)cs2)cc1 | 1.23 |
| COc1ccc(Oc2nnc(C)c3ccccc23)cc1 | 5.36 |
| CC(C)CCN(C(=O)COc1ccc(C#N)cc1)c1c(N)n(Cc2ccccc2)c(=O)[nH]c1=O | 8.82 |
| CCOC(=O)C1(c2ccccc2)CCN(CCC(=O)Nc2ccc(C(=O)OC)cc2)CC1 | -8.16 |
| Cc1ccc(S(=O)(=O)N(CC(=O)N/N=C/c2ccco2)Cc2ccccc2)cc1 | 6.15 |
| CC(=O)O[C@]1(c2ccccc2)CCN(C)[C@H]2CCCC[C@@H]21.Cl | 17.6 |
| COC(=O)CN1C(=O)N/C(=C/c2cc(Cl)c(OC)c(OC)c2)C1=O | 3.77 |

| Structure (SMILES) | hERG current change (%, negative = inhibition) at 1uM [%] |
| --- | --- |
| CCCc1[nH]nc2c1C(CCC)C(C#N)=C(N)O2 (stereo not drawn) | 3.08 |
| CCCc1cc(C(=O)N2CCCC(N3CCN(c4ccccc4F)CC3)C2)n(C)n1 (stereo not drawn) | -1.55 |
| O=c1c(Cc2ccc(F)cc2)c(O)ccn1Cc1ccc(Cl)cc1Cl | 10.3 |
| Cl.O=C(c1ccco1)N(Cc1ccccc1)Cc1ccccn1 | 17.3 |
| CCCC12CN3CC(C)(CN(C1)C3c1ccc(OC(C)C)cc1)C2=O (stereo not drawn) | 5.03 |
| O=C(c1ccccc1)c1ccc2nc(-c3ccco3)c(-c3ccco3)nc2c1 | 2.33 |
| CCOc1cc(C(=S)N2CCCCC2)ccc1OCC(=O)NCc1ccccc1 | -1.67 |
| CCOC(=O)c1ccc(-n2c(CC)nc3ccccc3c2=O)cc1 | 4.73 |
| Cc1nn(-c2ccccc2)c(C)c1C(=O)OCC(=O)N(C)c1c(N)n(Cc2ccccc2)c(=O)[nH]c1=O | 2.85 |
| CN(C)C=O.O=C(O)c1cccc(-n2c(/C=C/c3cccc([N+](=O)[O-])c3)nc3ccccc3c2=O)c1 | 14.7 |
| CC(Oc1ccc2c3c(c(=O)oc2c1)CCCC3)C(=O)NCc1cccnc1 (stereo not drawn) | 15.8 |
| O=C(CN1C(=O)c2ccccc2S1(=O)=O)NCCc1ccccc1 | 11.9 |
| COc1ccccc1CN1C(=S)SC(C)(C)C1NO (stereo not drawn) | -10.5 |
| Cc1cc(OCCCn2cnc3ccccc3c2=O)ccc1[N+](=O)[O-] | 4.63 |
| CC1SCCN1S(=O)(=O)c1ccc2ccccc2c1 (stereo not drawn) | 7.89 |
| Cc1cccc(CN2CCC(CNC(=O)Cn3ncc4c([nH]c5ccccc54)c3=O)CC2)c1 | -0.515 |
| CCNC(=O)NC(=O)C(C)OC(=O)c1c(C)nn(Cc2ccccc2)c1Cl (stereo not drawn) | 2.25 |
| O=C(C1=C[C@H](c2ccc3c(c2)OCO3)C[C@H](OCc2ccc(CO)cc2)O1)N1CCOCC1 | 9.65 |
| O=C(CNC(=O)c1ccc(S(=O)(=O)N2CCCC2)cc1)N/N=C/c1ccccc1Cl | -1.35 |

| Structure (SMILES) | hERG current change (%, negative = inhibition) at 1uM [%] |
| --- | --- |
| CCCC(C)NC(=O)c1ccc(-c2ccccc2)cc1 (stereo not drawn) | 14 |
| CCOc1cc(C2C(C(=O)N3CCOCC3)=C(C)NC3=C2C(=O)CCC3)ccc1O (stereo not drawn) | 12.4 |
| COC(=O)c1nn(-c2cccc(Cl)c2)ccc1=O | 7.18 |
| CN1OC(Cn2cc(C#N)c(=O)n(C)c2=O)CC1c1ccccc1 (stereo not drawn) | 16.2 |
| O=C(NN1C(=O)C2C3C=CC(C3)C2C1=O)c1ccncc1 (stereo not drawn) | -1.02 |
| CC(C)CCn1c(N)c(C(=O)NCc2cccs2)c2nc3ccccc3nc21 | -1.26 |
| OC1CCN(Cc2cccc(Oc3ccccc3)c2)CC1 | 19 |
| O=C(O)Cn1c(SCc2cccc3ccccc23)nc2ccccc21 | 8.15 |
| O=C(Nc1ccccc1C(=O)NC(Cc1ccccc1)C(=O)O)c1ccccc1 (stereo not drawn) | 15.6 |
| O=C1CN(C(=O)COC(=O)CCS(=O)(=O)c2ccccc2)c2ccccc2N1 | 15.7 |
| C1=C2C[N+]3(CCCC3)CC2Cc2ccc3ccccc3c21.[Br-] (stereo not drawn) | 12.4 |
| CC(SCc1ccccc1)C(=O)NC1CCCC1 (stereo not drawn) | 6.51 |
| Cc1nn2c(-c3ccncc3)ccnc2c1Cl | 10.9 |
| Cc1ccc2c(CSc3nc4ccccc4c(=O)n3CCCO)cc(=O)oc2c1C | 18.4 |
| Clc1ccc2nc(CSc3nc4ccccc4o3)cn2c1 | 2.36 |
| O=C1CCCCC1C(Nc1ccc(Br)cc1)c1ccccc1 (stereo not drawn) | 8.17 |
| CCCCNC(=O)c1cc2c(-c3ccc(Cl)cc3)nn(C)c2s1 | 5.97 |
| Cn1c(SCC(=O)NC(C)(C)C)nc(O)cc1=O | 10.3 |
| CC[N+](C)(C)c1cccc(O)c1.[Cl-] | 5.79 |
